The chains are these.
B1: AUACUAC (DNA:RNA)
RNA: GGGAGACCGGAAUUCAGAUUGUCCAUACUACUUAAAUCCCGUCGUAGCCACCA
DNA 1: CAATCTGAATTCCGGTCTCCC
DNA 2: TGGTGGCTACGACGGGATT
B2: CAGGACG (DNA:RNA)
RNA: GGGAGACCGGAAUUCAGAUUGUCCCAGGACGUUAAAUCCCGUCGUAGCCACCA
DNA 1: CAATCTGAATTCCGGTCTCCC
DNA 2: TGGTGGCTACGACGGGATT
B3: UGGUCAA (DNA:RNA)
RNA: B1 RNA with A25U, U26G, A27G, C28U, U29C, C31A
DNA 1: CAATCTGAATTCCGGTCTCCC
DNA 2: TGGTGGCTACGACGGGATT
B4: CUAUCUA (DNA:RNA)
RNA: B1 RNA with A25C, C28U, U29C, A30U, C31A
DNA 1: CAATCTGAATTCCGGTCTCCC
DNA 2: TGGTGGCTACGACGGGATT
B5: ACAUAUC (DNA:RNA)
RNA: B1 RNA with U26C, C28U, U29A, A30U
DNA 1: CAATCTGAATTCCGGTCTCCC
DNA 2: TGGTGGCTACGACGGGATT
B6: CCCCUAG (DNA:RNA)
RNA: B1 RNA with A25C, U26C, A27C, C31G
DNA 1: CAATCTGAATTCCGGTCTCCC
DNA 2: TGGTGGCTACGACGGGATT
B7: GGAUUUU (DNA:RNA)
RNA: B1 RNA with A25G, U26G, C28U, A30U, C31U
DNA 1: CAATCTGAATTCCGGTCTCCC
DNA 2: TGGTGGCTACGACGGGATT
B8: UCUUAAA (DNA:RNA)
RNA: B1 RNA with A25U, U26C, A27U, C28U, U29A, C31A
DNA 1: CAATCTGAATTCCGGTCTCCC
DNA 2: TGGTGGCTACGACGGGATT
B9: AUUAUAG (DNA:RNA)
RNA: B1 RNA with A27U, C28A, C31G
DNA 1: CAATCTGAATTCCGGTCTCCC
DNA 2: TGGTGGCTACGACGGGATT
B10: ACAACAG (DNA:RNA)
RNA: B1 RNA with U26C, C28A, U29C, C31G
DNA 1: CAATCTGAATTCCGGTCTCCC
DNA 2: TGGTGGCTACGACGGGATT
B11: CCGCGUC (DNA:RNA)
RNA: B1 RNA with A25C, U26C, A27G, U29G, A30U
DNA 1: CAATCTGAATTCCGGTCTCCC
DNA 2: TGGTGGCTACGACGGGATT
B12: ACCAGAG (DNA:RNA)
RNA: B1 RNA with U26C, A27C, C28A, U29G, C31G
DNA 1: CAATCTGAATTCCGGTCTCCC
DNA 2: TGGTGGCTACGACGGGATT
B13: UGGGCGG (DNA:RNA)
RNA: B2 RNA with C25U, A26G, A29C, C30G
DNA 1: CAATCTGAATTCCGGTCTCCC
DNA 2: TGGTGGCTACGACGGGATT
B14: GGAGUUU (DNA:RNA)
RNA: B1 RNA with A25G, U26G, C28G, A30U, C31U
DNA 1: CAATCTGAATTCCGGTCTCCC
DNA 2: TGGTGGCTACGACGGGATT
B15: CGUAUUG (DNA:RNA)
RNA: B2 RNA with A26G, G27U, G28A, A29U, C30U
DNA 1: CAATCTGAATTCCGGTCTCCC
DNA 2: TGGTGGCTACGACGGGATT
B16: AGCUGGA (DNA:RNA)
RNA: B1 RNA with U26G, A27C, C28U, U29G, A30G, C31A
DNA 1: CAATCTGAATTCCGGTCTCCC
DNA 2: TGGTGGCTACGACGGGATT
B17: AGACGUC (DNA:RNA)
RNA: B1 RNA with U26G, U29G, A30U
DNA 1: CAATCTGAATTCCGGTCTCCC
DNA 2: TGGTGGCTACGACGGGATT
B18: UCGAACU (DNA:RNA)
RNA: B2 RNA with C25U, A26C, G28A, G31U
DNA 1: CAATCTGAATTCCGGTCTCCC
DNA 2: TGGTGGCTACGACGGGATT
B19: UUGGAUG (DNA:RNA)
RNA: B2 RNA with C25U, A26U, C30U
DNA 1: CAATCTGAATTCCGGTCTCCC
DNA 2: TGGTGGCTACGACGGGATT
B20: CAACGUA (DNA:RNA)
RNA: B1 RNA with A25C, U26A, U29G, A30U, C31A
DNA 1: CAATCTGAATTCCGGTCTCCC
DNA 2: TGGTGGCTACGACGGGATT
B21: GCAGAUA (DNA:RNA)
RNA: B2 RNA with C25G, A26C, G27A, C30U, G31A
DNA 1: CAATCTGAATTCCGGTCTCCC
DNA 2: TGGTGGCTACGACGGGATT
B22: UCCGGUG (DNA:RNA)
RNA: B2 RNA with C25U, A26C, G27C, A29G, C30U
DNA 1: CAATCTGAATTCCGGTCTCCC
DNA 2: TGGTGGCTACGACGGGATT
B23: UUUAGAC (DNA:RNA)
RNA: B1 RNA with A25U, A27U, C28A, U29G
DNA 1: CAATCTGAATTCCGGTCTCCC
DNA 2: TGGTGGCTACGACGGGATT
B24: GCUACUG (DNA:RNA)
RNA: B2 RNA with C25G, A26C, G27U, G28A, A29C, C30U
DNA 1: CAATCTGAATTCCGGTCTCCC
DNA 2: TGGTGGCTACGACGGGATT
B25: CUGUAUG (DNA:RNA)
RNA: B2 RNA with A26U, G28U, C30U
DNA 1: CAATCTGAATTCCGGTCTCCC
DNA 2: TGGTGGCTACGACGGGATT
B26: UGCUAGA (DNA:RNA)
RNA: B2 RNA with C25U, A26G, G27C, G28U, C30G, G31A
DNA 1: CAATCTGAATTCCGGTCTCCC
DNA 2: TGGTGGCTACGACGGGATT
B27: UGAGAGG (DNA:RNA)
RNA: B2 RNA with C25U, A26G, G27A, C30G
DNA 1: CAATCTGAATTCCGGTCTCCC
DNA 2: TGGTGGCTACGACGGGATT
B28: AAUCGCC (DNA:RNA)
RNA: B1 RNA with U26A, A27U, U29G, A30C
DNA 1: CAATCTGAATTCCGGTCTCCC
DNA 2: TGGTGGCTACGACGGGATT
B29: CCGCCAU (DNA:RNA)
RNA: B1 RNA with A25C, U26C, A27G, U29C, C31U
DNA 1: CAATCTGAATTCCGGTCTCCC
DNA 2: TGGTGGCTACGACGGGATT
B30: AUUGAUU (DNA:RNA)
RNA: B1 RNA with A27U, C28G, U29A, A30U, C31U
DNA 1: CAATCTGAATTCCGGTCTCCC
DNA 2: TGGTGGCTACGACGGGATT
B31: AGGUGCU (DNA:RNA)
RNA: B2 RNA with C25A, A26G, G28U, A29G, G31U
DNA 1: CAATCTGAATTCCGGTCTCCC
DNA 2: TGGTGGCTACGACGGGATT

Where a chain is given by its changes, count along the chain named. The list shows a part of the results.

In the experiment the target is T1, RBFOX1 RRM RbFoxmut (Fox-RRM*) (Homo sapiens, UniProt Q9NWB1 109-208, R118D;E147R;N151S;E152T).
T1 sequence: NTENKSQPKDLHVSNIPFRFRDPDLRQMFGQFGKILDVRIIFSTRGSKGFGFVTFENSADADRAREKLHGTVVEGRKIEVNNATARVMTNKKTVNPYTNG
The experiment is described as follows: EMSA; HiTS-Eq, 1 nM pool, 10 min; buffer printed only for the single-RNA assays: 10 mM Tris pH 7.5, 150 mM NaCl, 3.4 mM EDTA, 0.001% NP-40, 30 C. The settings on record: tags: His6 N-terminal (pET28a); label: 5' 32P. A digest of the protocol: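 Purified RbFox RRM, wild type or mutant, was incubated for 10 min in 50 µL with 1 nM of a 5′-radiolabelled RNA pool carrying 7 randomized nucleotides, whose flanks were annealed to DNA oligonucleotides, over a series of increasing protein concentrations. Unbound RNA was resolved on 8% native PAGE, cut out, reverse-transcribed, barcoded by PCR and sequenced on an Illumina HiSeq 2500. Relative association constants were derived from changes in read counts for each RNA species versus the control reaction and normalised to the cognate motif.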
For B1, the binding signal is 0.114 KA relative to UGCAUGU.
The result for B2 reads 0.0697 KA relative to UGCAUGU; that for B3, 0.0865 KA relative to UGCAUGU.
The result for B4 reads 0.0864 KA relative to UGCAUGU; that for B5, 0.0991 KA relative to UGCAUGU; that for B6, 0.11 KA relative to UGCAUGU.
On to B7, for which the binding signal is 0.0826 KA relative to UGCAUGU.
For B8, the binding signal is 0.0977 KA relative to UGCAUGU.
The result for B9 reads 0.154 KA relative to UGCAUGU; that for B10, 0.0867 KA relative to UGCAUGU.
As to B11, the binding signal is 0.121 KA relative to UGCAUGU.
Take B12: the binding signal was 0.145 KA relative to UGCAUGU.
Consider B13, for which the binding signal is 0.131 KA relative to UGCAUGU.
As for B14, the binding signal was 0.0946 KA relative to UGCAUGU.
The result for B15 reads 0.252 KA relative to UGCAUGU.
The result for B16 reads 0.0719 KA relative to UGCAUGU.
The result for B17 reads 0.0685 KA relative to UGCAUGU.
Consider B18, for which the binding signal was 0.0723 KA relative to UGCAUGU.
With B19, the binding signal is 0.61 KA relative to UGCAUGU.
The result for B20 reads 0.123 KA relative to UGCAUGU; that for B21, 0.116 KA relative to UGCAUGU.
The result for B22 reads 0.0892 KA relative to UGCAUGU; that for B23, 0.0679 KA relative to UGCAUGU.
For B24, the binding signal was 0.0876 KA relative to UGCAUGU.
Turning to B25, the binding signal is 1.11 KA relative to UGCAUGU.
The result for B26 reads 0.134 KA relative to UGCAUGU.
As to B27, the binding signal was 0.0738 KA relative to UGCAUGU.
The result for B28 reads 0.0888 KA relative to UGCAUGU.
The result for B29 reads 0.0952 KA relative to UGCAUGU; that for B30, 0.103 KA relative to UGCAUGU.
The result for B31 reads 0.0923 KA relative to UGCAUGU.

The record behind these values is article PMC9911399, “Two distinct binding modes provide the RNA-binding protein RbFox with extraordinary sequence specificity”.
